Source: publication PMC4813553
No constants are given. Whether binding was seen depends on the method and setting. Binding seen in cells or lysates may run through a third protein. Some binding calls cover weakened binding; strength is not graded here. For part of these data: Tags and fused reporters may be left off the sequences shown. One block for each binder: values may come before it.

Sequences of proteins named here, by UniProt entry; tags and fusion partners are left off. Residues count along the entry.
UniProt Q99962, residues 290-349: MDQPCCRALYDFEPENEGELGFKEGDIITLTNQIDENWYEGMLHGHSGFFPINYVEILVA
UniProt Q9Z0R4: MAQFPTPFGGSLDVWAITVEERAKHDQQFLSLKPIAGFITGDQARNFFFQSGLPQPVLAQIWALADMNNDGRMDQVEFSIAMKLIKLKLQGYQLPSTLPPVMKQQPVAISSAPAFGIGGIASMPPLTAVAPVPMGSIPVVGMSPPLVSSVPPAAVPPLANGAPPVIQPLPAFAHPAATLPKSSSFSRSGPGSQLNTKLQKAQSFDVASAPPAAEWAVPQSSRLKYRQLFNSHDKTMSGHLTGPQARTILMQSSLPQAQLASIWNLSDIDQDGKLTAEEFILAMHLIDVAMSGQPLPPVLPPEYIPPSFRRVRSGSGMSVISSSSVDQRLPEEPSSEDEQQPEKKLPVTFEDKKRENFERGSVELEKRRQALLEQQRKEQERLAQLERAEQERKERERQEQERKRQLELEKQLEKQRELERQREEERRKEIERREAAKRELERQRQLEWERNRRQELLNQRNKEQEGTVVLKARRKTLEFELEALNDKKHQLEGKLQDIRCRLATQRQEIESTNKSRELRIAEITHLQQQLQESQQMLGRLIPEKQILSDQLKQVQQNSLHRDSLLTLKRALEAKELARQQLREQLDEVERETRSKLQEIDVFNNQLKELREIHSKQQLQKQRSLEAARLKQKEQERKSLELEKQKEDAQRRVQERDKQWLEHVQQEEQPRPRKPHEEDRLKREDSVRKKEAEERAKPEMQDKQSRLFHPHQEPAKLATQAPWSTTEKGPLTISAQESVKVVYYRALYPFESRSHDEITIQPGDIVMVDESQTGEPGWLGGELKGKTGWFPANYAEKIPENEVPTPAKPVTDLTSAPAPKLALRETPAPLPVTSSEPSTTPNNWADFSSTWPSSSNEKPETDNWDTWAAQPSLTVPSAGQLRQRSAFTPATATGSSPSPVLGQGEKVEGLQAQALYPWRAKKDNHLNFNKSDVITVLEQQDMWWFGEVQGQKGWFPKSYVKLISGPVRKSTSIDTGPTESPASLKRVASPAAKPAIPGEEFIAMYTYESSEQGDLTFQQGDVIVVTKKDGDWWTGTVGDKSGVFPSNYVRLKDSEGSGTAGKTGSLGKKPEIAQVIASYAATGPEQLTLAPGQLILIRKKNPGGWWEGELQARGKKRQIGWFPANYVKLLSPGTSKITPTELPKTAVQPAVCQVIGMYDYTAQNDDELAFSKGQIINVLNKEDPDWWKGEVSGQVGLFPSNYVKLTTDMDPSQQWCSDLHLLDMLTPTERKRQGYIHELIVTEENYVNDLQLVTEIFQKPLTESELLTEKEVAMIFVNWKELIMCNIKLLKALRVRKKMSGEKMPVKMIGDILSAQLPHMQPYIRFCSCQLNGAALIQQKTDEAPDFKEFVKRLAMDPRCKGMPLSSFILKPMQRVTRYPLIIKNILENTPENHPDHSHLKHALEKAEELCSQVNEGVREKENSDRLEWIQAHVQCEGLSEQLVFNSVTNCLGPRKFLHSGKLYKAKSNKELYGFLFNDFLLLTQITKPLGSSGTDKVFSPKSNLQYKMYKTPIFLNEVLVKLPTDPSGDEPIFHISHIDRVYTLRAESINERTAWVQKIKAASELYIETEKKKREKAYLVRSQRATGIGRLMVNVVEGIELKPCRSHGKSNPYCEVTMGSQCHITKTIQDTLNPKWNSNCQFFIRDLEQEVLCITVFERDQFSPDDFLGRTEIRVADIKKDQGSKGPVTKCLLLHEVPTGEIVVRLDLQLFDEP
UniProt Q62420: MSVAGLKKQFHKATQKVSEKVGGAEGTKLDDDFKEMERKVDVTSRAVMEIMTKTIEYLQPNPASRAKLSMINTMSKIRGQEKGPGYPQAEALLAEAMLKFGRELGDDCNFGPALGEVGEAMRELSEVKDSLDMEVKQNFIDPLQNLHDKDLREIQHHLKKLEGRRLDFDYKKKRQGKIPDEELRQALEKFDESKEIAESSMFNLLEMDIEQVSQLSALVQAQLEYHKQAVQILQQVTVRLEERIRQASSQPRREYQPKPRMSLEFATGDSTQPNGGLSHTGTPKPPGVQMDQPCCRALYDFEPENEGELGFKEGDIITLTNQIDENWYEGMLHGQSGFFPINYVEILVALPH

Columns and labels:
[1] = molecular target: SH3 domain of Endophilin 1, GST fusion (UniProt Q99962); assay: pull-down; GST-SH3 domains coupled to glutathione-Sepharose; columns loaded with a Triton X-100 extract of crude synaptosomal fraction (P2) from rat forebrain; bound proteins eluted with SDS and immunoblotted with anti-PRRT2 or anti-dynamin I; only the target purified
[2] = molecular target: T1, SH3 domain of Amphiphysin II, GST fusion (UniProt O00499); assay: as above
T1 sequence: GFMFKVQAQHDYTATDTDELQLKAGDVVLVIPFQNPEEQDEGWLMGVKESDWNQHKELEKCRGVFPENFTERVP

[3] = molecular target: Intersectin 1, endogenous in mouse brain (mouse (endogenous in mouse brain)) (UniProt Q9Z0R4); assay: co-IP; anti-Intersectin 1 or anti-Endophilin 1 antibodies or control IgG on protein G Sepharose, incubated with total mouse brain lysate in 150 mM NaCl, 50 mM Tris-HCl pH 7.4, 2 mM EDTA, 1% Triton X-100; Western blot with anti-PRRT2
[4] = molecular target: Endophilin 1, endogenous in mouse brain (mouse (endogenous in mouse brain)) (UniProt Q62420); assay: as above

binding [1]: binds
binding [2]: binds
B1: Dynamin I, endogenous in rat forebrain synaptosomes (protein, UniProt P21575 1-864)
chain: MGNRGMEDLIPLVNRLQDAFSAIGQNADLDLPQIAVVGGQSAGKSSVLENFVGRDFLPRGSGIVTRRPLVLQLVNSTTEYAEFLHCKGKKFTDFEEVRLEIEAETDRVTGTNKGISPVPINLRVYSPHVLNLTLVDLPGMTKVPVGDQPPDIEFQIRDMLMQFVTKENCLILAVSPANSDLANSDALKIAKEVDPQGQRTIGVITKLDLMDEGTDARDVLENKLLPLRRGYIGVVNRSQKDIDGKKDITAALAAERKFFLSHPSYRHLADRMGTPYLQKVLNQQLTNHIRDTLPGLRNKLQSQLLSIEKEVDEYKNFRPDDPARKTKALLQMVQQFAVDFEKRIEGSGDQIDTYELSGGARINRIFHERFPFELVKMEFDEKELRREISYAIKNIHGIRTGLFTPDLAFEATVKKQVQKLKEPSIKCVDMVVSELTSTIRKCSEKLQQYPRLREEMERIVTTHIREREGRTKEQVMLLIDIELAYMNTNHEDFIGFANAQQRSNQMNKKKTSGNQDEILVIRKGWLTINNIGIMKGGSKEYWFVLTAENLSWYKDDEEKEKKYMLSVDNLKLRDVEKGFMSSKHIFALFNTEQRNVYKDYRQLELACETQEEVDSWKASFLRAGVYPERVGDKEKASETEENGSDSFMHSMDPQLERQVETIRNLVDSYMAIVNKTVRDLMPKTIMHLMINNTKEFIFSELLANLYSCGDQNTLMEESAEQAQRRDEMLRMYHALKEALSIIGDINTTTVSTPMPPPVDDSWLQVQSVPAGRRSPTSSPTPQRRAPAVPPARPGSRGPAPGPPPAGSALGGAPPVPSRPGASPDPFGPPPQVPSRPNRAPPGVPSRSGQASPSRPESPRPPFDL

binding [1]: binds
binding [2]: binds
B2: Proline-rich transmembrane protein 2 (PRRT2), endogenous in rat forebrain synaptosomes (protein, UniProt D3ZFB6 1-344)
chain: MAASSSEVSEMKGVEDSSNTHSEGPRHSEEGMGPVQVVAENLDQPEALQSGPDTTAAPVDSGPKAELAPETTETPVETPETVQATDLSVNPGEDSKTCPSPKEACQEPASRPEVNREATAEQGAEQQSAAPPEPTSEQALQLNTQSDPQPTSQPPPKPPLQAEPPTQENPTTEVLTESTGEKQENGAVVPLQAGDGEEGPAPQPHSPPSTKTPPANGAPPRVLQKLVEEDRIGRAHGGHPGSPRGSLSRHPSSQLAGPGVEGGEGTQKPRDYIILAILSCFCPMWPVNIVAFAYAVMSRNSLQQGDVDGAQRLGRVAKLLSIVALVGGVLIIIASCVINLGVYK

binding [3]: binds
binding [4]: no binding
B3: Proline-rich transmembrane protein 2 (PRRT2), endogenous in mouse brain (protein, UniProt E9PUL5 1-346)
chain: MAASSSQVSEMKGVEDSSKTQTEGPRHSEEGLGPVQVVAEIPDQPEALQPGPGITAAPVDSGPKAELAPETTETPVETPETVQATDLSLNPEEGSKASPSPSPSEARQEPASKPDVNRETAAEEGSEPQSTAPPEPTSEPAFQINTQSDPQPTSQPPPKPPLQAEPPTQEDPTTEVLTESTGEKQENGAVVPLQAGDGEEGPAPQPHSPPSTKTPPANGAPPRVLQKLVEEDRIGRAHGGHPGSPRGSLSRHPSSQLAGPGVEGGEGTQKPRDYIILAILSCFCPMWPVNIVAFAYAVMSRNSLQQGDVDGAQRLGRVAKLLSIVALVGGVLIIIASCVINLGVYK
